# Results taken from PubChem BioAssay AID463173 (ICCB-Longwood Screening Facility, Harvard Medical School, 2010).
# Screen size: about 52,000 compounds; about 1,700 (3.3%) were called active. Cut-off read from the data, not from the text of the source: active = survival mostly below about 52% (no sharp cut-off); inactive = mostly above about 56%. This is one part of the list.
# Test system: Wild type
# Assay: S. aureus survival, RN4220 and DeltatarO strains – OD600, teichoic acid synthesis inhibitors, primary screen (AID 463173)
# Conditions: S. aureus RN4220 wild type/DeltatarO growth, OD600, 18 h, stronger effect = lower value, screened at 18.75 µg/mL (by protocol)
row,SMILES,survival
1,CC1=C(C(=O)NCc2ccc(Cl)cc2)C2(CCCCCC2)OC1=O,inactive: 101%
2,COc1ccc(-c2ccc3c(N)c(C(=O)Nc4cccc(C)c4)sc3n2)cc1,inactive: 92%
3,COc1cccc(CSc2nc3n(n2)C(c2cccnc2)C(C(=O)Nc2ccccc2C)=C(C)N3)c1 (stereo not given),inactive: 83%
4,COc1ccc(C2(O)CC3CCC(C2)N3c2cc(C)nc(-c3ccccc3)n2)cc1 (stereo not given),inactive: 98%
5,Cc1ccc(N2CC(NC(=O)CCc3ccccc3)CC2=O)cc1 (stereo not given),active: -3%
6,COc1ccccc1C(=O)NC(=O)Nc1ccc(-n2nc(C(F)(F)F)cc2C(F)(F)F)cc1,inactive: 101%
7,COc1ccccc1C(=O)Nc1ccc(C(=O)OCc2cc(=O)n3ccsc3n2)cc1,inactive: 72%
8,CCOC(=O)c1sc(NC(=O)c2cc3nc(-c4ccc(Br)cc4)cc(C(F)(F)F)n3n2)c(C(=O)OCC)c1C,inactive: 118%
9,Cn1nc(CC(=O)Nc2ccc3c(c2)CCC3)c2ccccc2c1=O,inactive: 97%
10,Cc1nc2cc(C(=O)O)ccc2n1-c1ccc(C(C)C)cc1,inactive: 81%
11,Cc1cccc(N2CCN(C(=O)Cn3c(=O)c4cccn4c4ccc(F)cc43)CC2)c1C,inactive: 85%
12,CCOC(=O)CCn1nc(C)c2c(C)n(-c3ccccc3)nc2c1=O,inactive: 87%
13,COc1ccc(Br)cc1CSC(=N)N,inactive: 106%
14,Cc1nc2nc(SCC(=O)NCc3ccccc3)nn2c(C)c1Cc1ccccc1,active: 0%
15,CC(C)CC(=O)Nc1ccc(Cl)c(-c2nc3ccccc3[nH]2)c1,inactive: 60%
16,Cc1ccc(NC(=O)c2ccc(Br)cc2)c(C(=O)c2ccccc2)c1,active: -2%
17,N#Cc1ccc(NS(=O)(=O)c2ccc(-c3cnc(C4CC4)o3)cc2)cc1,inactive: 66%
18,COc1ccc(OC)c(CNC(=O)CN2C(=O)CCn3nc(-c4cn(C)c5ccccc45)cc32)c1,inactive: 75%
19,COc1ccccc1N(CC(O)Cn1ccnc1C)S(=O)(=O)c1ccc(C)cc1 (stereo not given),inactive: 105%
20,CCOc1nc(NC(=O)NS(=O)(=O)Oc2ccccc2Cl)nc(-c2ccccc2)n1,inactive: 74%
21,Cc1ccc(C)n1-c1nnc(N2CCCC(C(=O)NCc3ccccc3)C2)s1 (stereo not given),inactive: 82%
22,COc1cc2nc(NCC(C)c3ccccc3)n3nc(-c4ccccc4)nc3c2cc1OC (stereo not given),inactive: 88%
23,Cc1ccc(NC(=O)CCc2c(C)nc3nc(C)nn3c2C)c(Cl)c1,inactive: 70%

row,SMILES,survival
1,CCOC(=O)c1ccccc1NC(=O)N(Cc1ccco1)C1CCN(C(C)=O)CC1,inactive: 134%
2,CNC(=O)c1ccc(Nc2nnc(-c3ccc(C)c(S(=O)(=O)N4CCOCC4)c3)c3ccccc23)cc1,inactive: 78%
3,CCc1cccc(NC(=O)CN2C=NS(=O)(=O)c3ccccc32)c1,inactive: 70%
4,Cc1cccc(-c2nc(Cn3c(SCc4cc(C)ccc4C)nc4ccncc43)c(C)o2)c1,inactive: 33%
5,O=C(NCc1ccccc1Cl)C1CCC(CNS(=O)(=O)c2ccc(Br)s2)CC1 (stereo not given),inactive: 146%
6,CCc1ccc(NC(=O)CSc2nc3ccsc3c(=O)n2C(C)CC)cc1 (stereo not given),inactive: 75%
7,O=C(c1ccco1)n1nc(-c2ccccc2)nc1NCc1ccccc1Cl,inactive: 90%
8,CC(=O)Nc1ccc(S(=O)(=O)NCCc2csc3nc(-c4cccc(C)c4)nn23)cc1,inactive: 59%
9,Cc1ccc(N(Cc2cccs2)C(=O)COc2ccccc2[N+](=O)[O-])cc1,inactive: 78%
10,COc1ccc(CCNC(=O)c2nn(C)c3c2CSc2ccccc2-3)cc1OC,inactive: 84%
11,O=C(NCc1ccccc1)C(=O)NCC(c1cccnc1)N1CCN(c2ccccc2)CC1 (stereo not given),inactive: 82%
12,Cc1ccc(-c2nn3c(-c4ccc(C)cc4)nnc3c3ccccc23)cc1,active: 20%
13,O=C(CCCn1c2ccccc2c(=O)c2ccccc21)Nc1ccc(F)cc1Cl,inactive: 80%
14,COc1cc(CN(C(=O)c2oc3ccccc3c2C)C2CCS(=O)(=O)C2)cc(OC)c1OC (stereo not given),inactive: 81%
15,COc1ccccc1-n1c(SCC(=O)Nc2ccc(C)cc2)nc(O)cc1=O,inactive: 70%
16,Cc1ccc(-c2nc(S(=O)(=O)c3ccc(C)cc3)c(SCC(=O)NC3CCCCC3)o2)cc1,inactive: 70%
17,COc1ccccc1CNC(=O)CCC1N=C2c3ccccc3N=C(SCC(=O)NCCc3ccc(OC)c(OC)c3)N2C1=O (stereo not given),inactive: 101%
18,COc1cccc(NC(=O)c2cc3c(=O)n(Cc4cccnc4)ccc3nc2C)c1,inactive: 78%
19,CCc1ccc(-c2cc(C)no2)cc1S(=O)(=O)Nc1ccc(Cl)cc1,inactive: 74%
20,COc1ccc(-c2noc(-c3ccc(NC(C)c4ccccc4)c([N+](=O)[O-])c3)n2)cc1OC (stereo not given),inactive: 85%
21,COc1ccc(NC(=O)OCC(F)(F)F)cc1,inactive: 109%
22,COc1cc(NS(=O)(=O)c2ccc3oc(=O)c4ncn(C)c4c3c2)cc(OC)c1,inactive: 134%
23,O=C(Nc1cccc(C(F)(F)F)c1)c1cccnc1NCCO,inactive: 112%

row,SMILES,survival
1,CCN1CCC(N(Cc2ccc3c(c2)OCO3)C(=O)Nc2ccccc2OC)CC1,inactive: 72%
2,CCOC(=O)c1c(C)[nH]c(CCC(=O)NCc2ccccc2C)c1C,inactive: 71%
3,CCOc1ccccc1CN(CCc1ccc2c(c1)OCO2)Cc1cccc(OC)c1OC,inactive: 41%
4,CN(C)c1ccc(NC(=O)CSC2=Nc3ccccc3C3=NC(CC(=O)NCc4ccccc4)C(=O)N23)cc1 (stereo not given),inactive: 127%
5,CCCN1C(=O)c2[nH]nc(-c3ccc(F)cc3)c2C1c1ccccn1 (stereo not given),inactive: 82%
6,CC1CN(C(=O)N2CCC(C(=O)NC3CCCCCC3)CC2)c2ccccc2O1 (stereo not given),inactive: 86%
7,COc1cccc(C2CC(=O)N3CN(C4CCCCC4)CSC3=C2C#N)c1 (stereo not given),inactive: 82%
8,COc1cc(NC(=O)C(CCS(C)(=O)=O)N2Cc3ccccc3C2=O)cc(OC)c1OC (stereo not given),active: 14%
9,COC(=O)Cn1cnc2c1c(=O)[nH]c(=O)n2C,inactive: 118%
10,Cc1ccc(N2CC(c3nnc(NC(=O)c4ccco4)s3)CC2=O)cc1C (stereo not given),inactive: 81%
11,O=C(NC1CCCC1)c1ccc(CSc2nc3ccncc3n2Cc2ccc(F)cc2)cc1,inactive: 79%
12,COc1ccc(-n2cc(C(=O)NC(C)c3ccccc3)c3ccccc3c2=O)cc1 (stereo not given),inactive: 83%
13,CCN1CCN(c2cc(C)c3cc(NC(=O)/C=C/c4cccc(Cl)c4)ccc3n2)CC1,inactive: 62%
14,Cc1ccc(NC(=O)Cn2cc(S(=O)(=O)N3CCCC3)c(S(=O)(=O)N3CCCC3)c2)cc1C,inactive: 84%
15,CCOc1ccc(NC(=O)c2ccc(-c3cccc(Cl)c3C)o2)cc1,inactive: 66%
16,CCC(C#CCN1CCCCC1)(CC)OC(C)=O,inactive: 100%
17,CCOC(=O)c1cnc2c(ccc3ccccc32)c1Nc1ccc(OC)c(OC)c1,active: 5%
18,Cc1cccc(C2C=C(c3ccc(F)cc3)Nc3nc4ccccc4n32)c1 (stereo not given),inactive: 82%
19,O=c1c2cc3c(nc2ncn1Cc1ccccc1F)CCCC3,inactive: 73%
20,Cc1ccc(NC(=O)/C(C#N)=C/c2cn(CC(=O)NCc3ccco3)c3ccccc23)cc1Cl,inactive: 108%
21,Cc1ccc(OCC(O)CN)cc1 (stereo not given),inactive: 111%
22,CCOc1ccc(Cn2c(CNS(=O)(=O)c3ccc([N+](=O)[O-])cc3)nc3cccnc32)cc1,inactive: 87%
23,CN1CN2C(=O)N3CN(C)CN4C(=O)N(C1)C2C34 (stereo not given),inactive: 110%

row,SMILES,survival
1,COCCn1ccc2c(OCC(=O)NCc3ccc(F)cc3)cccc2c1=O,inactive: 81%
2,COc1ccc(C(=O)NCCSc2c(C)[nH]c3ccccc23)cc1,inactive: 109%
3,Cc1ccc(NC(=O)Nc2nnc(SCC(=O)N3CCC(C)CC3)s2)cc1,inactive: 82%
4,COc1ccccc1-c1cc(C(F)(F)F)nc(S(=O)(=O)CCCC(=O)Nc2ccc(F)c(Cl)c2)n1,inactive: 100%
5,COc1ccc(C(=O)N2CCC(c3c[nH]c4ccccc34)(c3c[nH]c4ccccc34)CC2)cc1,inactive: 61%
6,COc1ccc(NC(=O)c2cc(C3CC3)nc3c2c(C)nn3-c2ccc(C)cc2)cc1OC,inactive: 148%
7,CN(C)c1ccc(CNC(=O)C2CCN(S(=O)(=O)c3cn(C)cn3)CC2)cc1,active: -2%
8,COc1ccccc1CNC(=O)c1oc2c(c1C)-c1nn(Cc3ccc(Cl)cc3)cc1CC2,inactive: 81%
9,COc1ccc(NC(=O)c2sc3nc(-c4cc5cccc(OC)c5oc4=O)[nH]c(=O)c3c2C)cc1,inactive: 91%
10,Cc1c(NS(C)(=O)=O)cccc1-c1nc2ccccc2s1,inactive: 83%
11,O=c1c2ccc(N3CCOCC3)c3cccc(c32)c2nc3ccccc3n12,inactive: 105%
12,Cc1c(C(=O)Nc2ccncc2)oc2ccccc12,inactive: 102%
13,Cc1ccc(C)c(CN2C(=O)c3ccccc3S(=O)c3ccc(C(=O)NCCc4ccc(Cl)cc4)cc32)c1 (stereo not given),inactive: 95%
14,COc1cccc(CNC(=O)NCc2noc3ccc(C)cc23)c1,inactive: 89%
15,CCOc1ccc(N(CC)S(=O)(=O)N2CCCC(C(=O)NCc3ccc(SC)cc3)C2)cc1 (stereo not given),inactive: 87%
16,CC1CCN(CC(=O)Nc2ccc(C(=O)O)cc2)CC1,inactive: 99%
17,COc1cc(C2/C(=C(\O)c3ccc(F)cc3)C(=O)C(=O)N2Cc2cccnc2)ccc1O (stereo not given),inactive: 101%
18,Cc1ccc(NC(=O)CN2C=NS(=O)(=O)c3ccccc32)c(C)c1,inactive: 71%
19,COc1ccc(N2CCN(C(=O)CCS(=O)(=O)c3cc(Br)cc4c3N(C(=O)C3CC3)CC4)CC2)cc1,inactive: 83%
20,NCc1ccoc1C(=O)O,inactive: 108%
21,COc1ccc(NC(=O)CN2C(=O)COc3ccc(S(=O)(=O)N4CCOCC4)cc32)cc1Cl,inactive: 97%
